These results are taken from the antibiotic and cytotoxicity screens of Wong et al. (2023).

The subject of test [1] is HSkMC (human skeletal muscle cells). Description: cytotoxicity call (relative viability < 0.9). The settings on record: 10 µM.
Test [2] concerns HepG2. The test is described as follows: cytotoxicity call (relative viability < 0.9). The following applies: 10 µM.
Test [3] deals with S. aureus RN4220. The test is described as follows: growth inhibition call (relative growth <= 0.2). The following applies: 50 µM.

Molecules are shown by their SMILES. The list shows a part of the results.

As for `CN1C(=O)c2cc(NC(=O)C3CCOCC3)ccc2OC[C@H]2O[C@H](CC(=O)NCc3ccc4c(c3)OCO4)CC[C@H]21`, the cytotoxicity call in test [1] and in test [2] was “inactive” throughout. In test [3], the growth inhibition call is “inactive”.

Take `Cc1ccccc1S(=O)(=O)N1C[C@H](O)COC[C@H]2O[C@@H](CC(=O)NCc3ccccc3Cl)CC[C@@H]21`: the cytotoxicity call in test [1] and in test [2] was “inactive” in each case. Besides, the growth inhibition call in test [3] is “inactive”.

`CO[C@@H]1CN(C)C(=O)c2ccc(NC(=O)Nc3ccc(Cl)cc3)cc2OC[C@@H](C)N(C(=O)Nc2c(C)noc2C)C[C@H]1C`: the cytotoxicity call in test [1] and in test [2] was “inactive” throughout. In addition, in test [3], the growth inhibition call is “inactive”.

Regarding `CO[C@@H]1CN(C)C(=O)c2ccc(NC(=O)c3ccc(F)cc3)cc2OC[C@@H](C)N(C(=O)CN(C)C)C[C@H]1C`, the cytotoxicity call in test [1] and in test [2] was “inactive” in each case. Besides, the growth inhibition call in test [3] was “inactive”.

Turning to `C=CC[C@@H](CC(=O)N(CCO)Cc1ccccc1)C(=O)NC[C@@H](OC(=O)[C@@H](CC=C)Cc1ccc(F)cc1)c1ccccc1`, the cytotoxicity call in test [1] and in test [2] was “inactive” each time. Also, the growth inhibition call in test [3] was “inactive”.

Turning to `C[C@@H]1CN([C@H](C)CO)C(=O)c2cccc(NC(=O)Nc3ccc(C(F)(F)F)cc3)c2O[C@H]1CN(C)Cc1ccc(Cl)c(Cl)c1`, the cytotoxicity call in test [1] is “active”. In addition, in test [2], the cytotoxicity call is “inactive”. Besides, the growth inhibition call in test [3] is “inactive”.

For `C[C@@H]1CCCCO[C@@H](CN(C)Cc2ccc(Cl)c(Cl)c2)[C@H](C)CN([C@H](C)CO)C(=O)c2cc(NS(=O)(=O)c3cn(C)cn3)ccc2O1`, the cytotoxicity call in test [1] and in test [2] was “inactive” in each case. Moreover, the growth inhibition call in test [3] is “inactive”.

As to `Cc1ccc(S(=O)(=O)Nc2ccc3c(c2)C(=O)N([C@H](C)CO)C[C@H](C)[C@@H](CN(C)C(=O)Nc2c(C)noc2C)OCCCC[C@@H](C)O3)cc1`, the cytotoxicity call in test [1] and in test [2] was “inactive” each time. The growth inhibition call in test [3] is “inactive”.

Regarding `C[C@H](CO)N1C[C@H](C)[C@H](CN(C)S(C)(=O)=O)Oc2ncc(C#CCN(C)C)cc2C1=O`, the cytotoxicity call in test [1] and in test [2] was “inactive” in each case. In test [3], the growth inhibition call is “inactive”.

Consider `C[C@H](CO)N1C[C@H](C)[C@H](CN(C)Cc2ccc(Oc3ccccc3)cc2)Oc2ccc(NC(=O)c3ccncc3)cc2CC1=O`, for which the cytotoxicity call in test [1] and in test [2] was “inactive” each time. The growth inhibition call in test [3] was “inactive”.

With `CC(C)NC(=O)N(C)C[C@@H]1OCCCC[C@@H](C)Oc2ccc(NC(=O)Nc3cccc4ccccc34)cc2C(=O)N([C@@H](C)CO)C[C@H]1C`, the cytotoxicity call in test [1] and in test [2] was “inactive” throughout. The growth inhibition call in test [3] is “inactive”.

Take `Cn1c(=O)c2c(nc(N(CCO)CCO)n2Cc2ccc(F)cc2)n(C)c1=O`: the cytotoxicity call in test [1] and in test [2] was “inactive” in each case. In test [3], the growth inhibition call is “inactive”.

In the case of `C[C@H]1CCCCO[C@H](CN(C)C(=O)NC2CCCCC2)[C@@H](C)CN([C@@H](C)CO)C(=O)c2cc(NC(=O)CCC(F)(F)F)ccc2O1`, the cytotoxicity call in test [1] and in test [2] was “inactive” in each case. Besides, in test [3], the growth inhibition call was “inactive”.

As for `COc1oc(C(=O)NC2CCCCC2)c(-c2ccc(Cl)cc2)c1S(=O)(=O)c1ccc2c(c1)OCCO2`, the cytotoxicity call in test [1] and in test [2] was “inactive” throughout. Moreover, the growth inhibition call in test [3] is “inactive”.

Take `C[C@H](CO)N1C[C@H](C)[C@H](CN(C)S(C)(=O)=O)Oc2cc(-c3ccccc3F)ccc2S1(=O)=O`: the cytotoxicity call in test [1] and in test [2] was “inactive” each time. Besides, in test [3], the growth inhibition call is “inactive”.

On to `C[C@@H]1CN([C@H](C)CO)C(=O)c2cc(NC(=O)CCC(F)(F)F)ccc2O[C@@H](C)CCCCO[C@@H]1CN(C)Cc1ccccc1`, for which the cytotoxicity call in test [1] and in test [2] was “inactive” in each case. The growth inhibition call in test [3] was “inactive”.

For the molecule `C[n+]1cccc(C(=O)NO)c1`, the cytotoxicity call in test [1] and in test [2] was “inactive” in each case. Also, the growth inhibition call in test [3] is “inactive”.

For the molecule `CC(C)CC#Cc1ccc2c(c1)O[C@H](CN(C)CC1CCOCC1)[C@H](C)CN([C@@H](C)CO)S2(=O)=O`, the cytotoxicity call in test [1] and in test [2] was “inactive” throughout. In test [3], the growth inhibition call was “inactive”.

Consider `C[C@@H]1CCCCO[C@H](CN(C)C(=O)Nc2ccccc2)[C@@H](C)CN([C@H](C)CO)C(=O)c2cc(NC(=O)Nc3ccc4c(c3)OCO4)ccc2O1`, for which the cytotoxicity call in test [1] and in test [2] was “inactive” throughout. Further, the growth inhibition call in test [3] is “inactive”.

As to `Cc1noc(C)c1NC(=O)N(C)C[C@@H]1Oc2c(NC(=O)C3CC3)cccc2C(=O)N([C@@H](C)CO)C[C@H]1C`, the cytotoxicity call in test [1] and in test [2] was “inactive” each time. Moreover, the growth inhibition call in test [3] is “inactive”.

Consider `C[C@H](CO)N1C[C@H](C)[C@@H](CN(C)Cc2ccc(C(F)(F)F)cc2)Oc2ccc(NS(=O)(=O)c3ccc(Cl)cc3)cc2CC1=O`, for which the cytotoxicity call in test [1] and in test [2] was “inactive” throughout. Besides, the growth inhibition call in test [3] was “inactive”.

Turning to `COc1ccc(NC(=O)N2C[C@@H](O)COC[C@H]3O[C@@H](CC(=O)NCc4ccccc4OC)CC[C@@H]32)cc1`, the cytotoxicity call in test [1] and in test [2] was “inactive” throughout. For the same molecule, the growth inhibition call in test [3] was “inactive”.

Take `CCN(CC)C(=O)C1CCNCC1`: the cytotoxicity call in test [1] and in test [2] was “inactive” throughout. The growth inhibition call in test [3] was “inactive”.

With `O=C(C[C@@H]1CC[C@@H]2[C@H](COC[C@@H](O)CN2S(=O)(=O)c2ccccc2)O1)N1CCOCC1`, the cytotoxicity call in test [1] and in test [2] was “inactive” in each case. In addition, in test [3], the growth inhibition call is “inactive”.

Consider `C[C@H](CO)N1C[C@H](C)[C@@H](CN(C)Cc2ccc(Cl)c(Cl)c2)Oc2ccc(NS(=O)(=O)c3ccc(F)cc3)cc2C1=O`, for which the cytotoxicity call in test [1] and in test [2] was “inactive” each time. The growth inhibition call in test [3] is “inactive”.

For the molecule `Nc1ncn(C[C@@H](O)CO)c2nc(Br)nc1-2`, the cytotoxicity call in test [1] and in test [2] was “inactive” in each case. Besides, in test [3], the growth inhibition call is “inactive”.

Take `C[C@H]1CN([C@@H](C)CO)C(=O)c2cccc(NC(=O)Nc3cccc4ccccc34)c2O[C@H]1CN(C)S(=O)(=O)c1ccc(F)cc1`: the cytotoxicity call in test [1] and in test [2] was “inactive” throughout. Also, the growth inhibition call in test [3] was “inactive”.
